According to PubChem BioAssay AID1963576 (National Center for Advancing Translational Sciences (NCATS), 2024):
About 60 (0.1%) of roughly 46,000 compounds were called active. About 3% were inconclusive and are not listed. Calls come from the whole dose curve; as a rule, active = well fitted inhibition curve with a large enough effect; inconclusive = small, poorly fitted or top-dose-only effect; inactive = no such curve, though single readings can be large or run the other way. The list shows a part of the results.

Test: Primary qHTS assay for Inhibitors of ovarian cancer metastasis using an organotypic tumor microenvironment (TME) model.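 For activity change, negative = inhibition: plate controls were DMSO wells for no effect and tomatine positive control wells for full effect.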 Note: nearly all actives have a fitted effect of over 65% in size.
Conditions: SKOV3ip1-GFP adhesion/invasion on 3D omental model, fluorescence; series mostly up to 45.8 µM; activity change, negative = inhibition: at the top concentration
In short: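 A 3D layer of primary human omental fibroblasts, mesothelial cells, fibronectin and collagen I, grown 48 hr, received SKOV3ip1-GFP cells in serum-free medium plus compounds at 0.36-46 umol/L. After 2 hr RT and 16 hr 37 C, fixed adherent GFP cells were counted; normalized to DMSO and tomatine.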

| SMILES | activity change, negative = inhibition | outcome |
| --- | --- | --- |
| CN1CCN(C(=O)O[C@H]2c3nccnc3C(=O)N2c2ccc(Cl)cn2)CC1 | inactive: 16.5% |  |
| O=C(N[C@@H](COc1ccc2[nH]c(=O)[nH]c2c1)c1ccccc1)c1cccn(Cc2ccc(F)c(F)c2)c1=O | inactive: -7.41% |  |
| O=C1CC[C@@]2(O)[C@H]3Cc4ccc(O)c5c4[C@@]2(CCN3CC2CC2)[C@H]1O5 | inactive: -13.6% |  |
| C[C@@]12OC(=O)[C@]1([C@@H](O)[C@@H]1C=CCCC1)NC(=O)[C@H]2CCCl | inactive: -22.6% |  |
| COc1ccc(-c2nn3c(=O)cc(CN4CCN(C(=O)COc5ccc(F)cc5)CC4)nc3s2)cc1 | inactive: -2.34% |  |
| O=C(Nc1ccc2c(c1)OCO2)c1cccn(Cc2ccc(F)cc2)c1=O | inactive: -6.11% |  |
| O=c1cccc2n1CC1CNC[C@H]2C1 | inactive: 3.49% |  |
| CC(NC(C)(C)C)C(=O)c1cccc(Cl)c1 (stereo not drawn) | inactive: 9.64% |  |
| CCOc1ccc2nc(NC(=O)c3cccn(Cc4ccccc4C)c3=O)sc2c1 | inactive: 8.72% |  |
| CCC(=O)N1CC(=O)Nc2ccc(C)cc2C1c1ccc(F)cc1 (stereo not drawn) | inactive: -3.03% |  |
| Cc1cc(NC(=O)c2cccn(Cc3cccc([N+](=O)[O-])c3)c2=O)no1 | inactive: 16.3% |  |
| CN(C)[C@@H]1C(=O)C(C(N)=O)=C(O)[C@@]2(O)C(=O)C3=C(O)c4c(O)cccc4[C@@](C)(O)[C@H]3C[C@@H]12 | inactive: -4.41% |  |
| Cc1ccccc1Cn1cccc(C(=O)Nc2cc(Cl)ccc2C#N)c1=O |  | inactive |
| Cn1c(=O)n(C)c2cc(CNCCc3ccccc3)ccc21 | inactive: 0.943% |  |
| Cc1cccc(CN2C(=O)CN=C(c3ccccc3)c3cc(Cl)ccc32)c1 |  | inactive |
| O=C(O)C(=O)c1cn(Cc2ccccc2)c2ccc(-c3ccc(OC(F)(F)F)cc3)cc12 | inactive: -4.72% |  |
| CCCc1ccc(OCC(=O)Nc2ccc(Cl)cc2C(=O)c2ccccc2)cc1 |  | inactive |
| COc1ccc(-c2nc(CN3C(=O)CN=C(c4ccccc4Cl)c4cc(Cl)ccc43)c(C)o2)cc1OC | inactive: 1.43% |  |
| C[C@](O)(CS(=O)(=O)c1ccc(F)cc1)C(=O)Nc1ccc(C#N)c(C(F)(F)F)c1 | inactive: -12.4% |  |
| O=C(Cn1cc(C(=O)c2ccccc2)c2ccccc21)Nc1ccc(Br)cc1 | inactive: -7.62% |  |

| SMILES | activity change, negative = inhibition | outcome |
| --- | --- | --- |
| COc1ccc(OCC(=O)N2CCN(CCc3ccccn3)CC2)cc1 | inactive: 4.33% |  |
| CC(C)c1ccc(NC(=O)CN2C(=O)CN=C(c3ccccc3)c3ccccc32)cc1 | inactive: -3.99% |  |
| CCC(C(=O)Nc1ccccc1F)N1C(=O)CN=C(c2ccccc2)c2ccccc21 (stereo not drawn) |  | inactive |
| CCc1ccc(-n2nc(C)c3c2NC(=O)CSC3c2ccc(OC)cc2OC)cc1 (stereo not drawn) | inactive: 1.11% |  |
| COc1ccc(Cl)cc1NC(=O)c1sc2nc3c(cc2c1N)N1CCC3CC1 | inactive: -21.5% |  |
| CCNC(=O)CC1N=C(c2ccc(Cl)cc2)c2cc(OC)ccc2-n2c(C)nnc21 (stereo not drawn) | inactive: 9.81% |  |
| N#Cc1ccccc1NC(=O)c1cccn(Cc2ccccc2)c1=O | inactive: 2.87% |  |
| C[C@]12CC[C@@H]3c4ccc(OC(=O)N(CCCl)CCCl)cc4CC[C@H]3[C@@H]1CC[C@@H]2OP(=O)(O)O | inactive: 3.73% |  |
| O=C(NCC1CCOCC1)c1cnc(Nc2ccc(Cl)cc2Cl)nc1C(F)(F)F | inactive: 21% |  |
| Cc1ccc(-n2c(/C=C/c3ccccc3)nc3ccccc3c2=O)cc1Cl | inactive: 8.2% |  |
| O=C1CC(c2ccccc2Br)c2c(c3ccccc3oc2=O)O1 (stereo not drawn) | inactive: 1.05% |  |
| Cn1cc(C2=C(c3cn(C4CCN(Cc5ccccn5)CC4)c4ccccc34)C(=O)NC2=O)c2ccccc21 | inactive: 1.83% |  |
| Cn1c(=O)n(C)c2cc(CNCCc3ccccc3F)ccc21 | inactive: 0.897% |  |
| CC1(N2CCC(n3c([C@@H]4CCCNC4)nc4ccccc43)CC2)CCCCCCC1 | inactive: 6.06% |  |
| CC[C@H]1C=CC=CC[C@@H](C)[C@H](O)[C@@](C)(O)C(=O)[C@@H](C)[C@H](O)[C@@H](C)C(=O)[C@@H](C)[C@H](O)[C@@H](C)C=CC(=O)O[C@@H]2[C@@H](C)[C@H](CC1)O[C@]1(CC[C@H](C)[C@H](C[C@@H](C)O)O1)[C@H]2C | inactive: -5.55% |  |
| COc1ccc(C)cc1NC(=O)c1cccn(Cc2ccccc2Cl)c1=O | inactive: -8.24% |  |
| Cc1ccc(-n2c(/C=C/c3cc(Br)cs3)nc3ccccc3c2=O)cc1C | inactive: 2.96% |  |
| C[C@@H]1O[C@@H](O[C@@H]2C=C3CC[C@@H]4[C@@H](CC[C@]5(C)[C@H](c6ccc(=O)oc6)CC[C@@]45O)[C@@]3(C)CC2)[C@H](O)[C@H](O)[C@H]1O | inactive: -10.7% |  |
| C#C[C@]1(O)C=C[C@@H]2[C@@H]3CCC4=CC(=O)CC[C@@H]4[C@H]3CC[C@@]21CC | inactive: -4.28% |  |
| Cc1cccc(C)c1NC(=O)CN1CCCC1=O | inactive: 3.3% |  |

| SMILES | activity change, negative = inhibition | outcome |
| --- | --- | --- |
| O=C(COc1ccccc1[N+](=O)[O-])N1CCN(CCc2ccncc2)CC1 |  | inactive |
| Cc1cccc(C)c1OCC(=O)Nc1ccc(Cl)cc1C(=O)c1ccccc1 | inactive: 7.76% |  |
| Cc1ccc(CNC(=O)CCCn2c(=O)c3sccc3n(CC(=O)Nc3c(C)cccc3C)c2=O)cc1 | inactive: -4.83% |  |
| Cc1nc(-c2ccc(-c3ccc(C(=O)N4CCc5cc6c(cc54)C4(CCN(C)CC4)CO6)cc3)c(C)c2)no1 | inactive: -4.37% |  |
| CC(C)c1cccc(C(C)C)c1O | inactive: -13.9% |  |
| COc1ccc(NC(=O)CCc2nc(C3=CCN(Cc4cccc(C)c4)CC3)no2)c(OC)c1 |  | inactive |
| Cc1cc(OCC(=O)N2CCN(CCc3ccncc3)CC2)cc(C)c1Cl | inactive: -7.12% |  |
| CN[C@@H]1Cc2cccc3[nH]c(=O)n(c23)C1 | inactive: -8.45% |  |
| COc1ccc(OC)c(CCNCc2c(C(=O)O)c(C)n(Cc3ccc(F)cc3Cl)c2C)c1 | inactive: -0.147% |  |
| Cc1ccc(Cn2cccc(C(=O)Nc3ccc(C)c(Cl)c3)c2=O)cc1 | inactive: -12.5% |  |
| O=[N+]([O-])c1ncc[nH]1 | inactive: -16.6% |  |
| COC[C@H]1OC(=O)c2coc3c2[C@@]1(C)C1=C(C3=O)[C@@H]2CC[C@H](O)[C@@]2(C)C[C@@H]1OC(C)=O | inactive: 5.92% |  |
| COc1ccc(C2CC(=O)Oc3c2c(=O)oc2ccccc32)c(OC)c1OC (stereo not drawn) | inactive: 2.29% |  |
| Cc1cccc(-n2c(/C=C\c3cccc(Br)c3)nc3ccccc3c2=O)c1 | inactive: -9.95% |  |
| COc1ccccc1CN1CCN(C(=O)COc2cccc(C)c2)CC1 | inactive: -2.01% |  |
| COc1ccc(NC(=O)CN2C(=O)CN=C(c3ccccc3)c3ccccc32)c(OC)c1 | inactive: -2.17% |  |
| Cc1ccccc1-n1nc(C)c2c1NC(=O)CSC2c1ccccc1C(F)(F)F (stereo not drawn) | inactive: 3.66% |  |
| C=CCON=C(C[C@H]1O[C@@H]2O[C@]3(C)CC[C@@H]4[C@H](C)CC[C@@H]([C@H]1C)[C@@]24OO3)[C@H]1O[C@@H]2O[C@]3(C)CC[C@H]4[C@H](C)CC[C@@H]([C@@H]1C)[C@@]24OO3 | inactive: -3.11% |  |
